What was measured:
[1] = molecular target: T1, MOR receptor (PathHunter CHO-K1 OPRM1 β-Arrestin Cell Line) (Homo sapiens, UniProt P35372); assay: HTRF-cAMP cell experiment; conditions: for Emax: read-out: cAMP Emax (%) Morphine was 100%
[2] = molecular target: T1, MOR receptor (PathHunter CHO-K1 OPRM1 β-Arrestin Cell Line); assay: cell-based; conditions: read-out: β-arrestin Emax (%), Morphine was 100%
[3] = maximum effect relative to morphine (100%), PathHunter CHO-K1 OPRM1 β-arrestin cells

T1 sequence (P35372 whole entry): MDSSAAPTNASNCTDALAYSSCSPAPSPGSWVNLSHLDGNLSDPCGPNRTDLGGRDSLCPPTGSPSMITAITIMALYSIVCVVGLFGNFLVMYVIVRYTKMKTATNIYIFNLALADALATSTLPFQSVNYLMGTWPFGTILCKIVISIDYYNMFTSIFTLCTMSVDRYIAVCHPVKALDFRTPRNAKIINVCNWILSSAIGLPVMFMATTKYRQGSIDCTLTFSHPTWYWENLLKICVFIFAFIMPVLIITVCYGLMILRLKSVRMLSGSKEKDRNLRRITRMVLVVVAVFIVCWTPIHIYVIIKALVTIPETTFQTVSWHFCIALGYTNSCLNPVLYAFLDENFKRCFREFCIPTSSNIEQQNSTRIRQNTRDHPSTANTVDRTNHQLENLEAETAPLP

SMILES | EC50 [1] [nM] | Emax [1] [%] | Emax [2, 3] [%] | Emax [2] [%]
CC1([C@@H]2C[C@H](NCC[C@@]3(c4ccccn4)CCOC4(CCCC4)C3)c3ccnn32)CC1 (single isomer, unassigned) [Compound H-2a] | 1 | 56.3 | 7 | 
CC1([C@H]2C[C@H](NCC[C@@]3(c4ccccn4)CCOC4(CCCC4)C3)c3ccnn32)CC1 (single isomer, unassigned) [Compound H-2b] | 26.2 | 68.2 | 5.7 | 
CC(C)(C)[C@@H]1C[C@H](NCC[C@@]2(c3ccccn3)CCOC3(CCCC3)C2)c2ccnn21 [Compound H-1a, (4S,6S)-6-tert-butyl-N-(2-((R)-9-(pyridin-2-yl)-6-oxaspiro[4.5]decan-9-yl)ethyl)-5,6-dihydro-4H-pyrrolo[1,2-b]pyrazol-4-amine] | 8.1 | 97.4 | 17.6 | 
CC(C)(C)[C@H]1C[C@H](NCC[C@@]2(c3ccccn3)CCOC3(CCCC3)C2)c2ccnn21 [Compound H-1b, (4S,6R)-6-tert-butyl-N-(2-((R)-9-(pyridin-2-yl)-6-oxaspiro[4.5]decan-9-yl)ethyl)-5,6-dihydro-4H-pyrrolo[1,2-b]pyrazol-4-amine] | 42 | 94.2 | 12 | 
CC(C)[C@@H]1C[C@H](NCC[C@@]2(c3ccccn3)CCOC3(CCCC3)C2)c2ccnn21 [Compound H-3a, (4S,6S)-6-isopropyl-N-(2-((R)-9-(pyridin-2-yl)-6-oxaspiro[4.5]decan-9-yl)ethyl)-5,6-dihydro-4H-pyrrolo[1,2-b]pyrazol-4-amine] |  |  |  | 1.3
CC(C)[C@H]1C[C@H](NCC[C@@]2(c3ccccn3)CCOC3(CCCC3)C2)c2ccnn21 [Compound H-3b, (4S,6R)-6-isopropyl-N-(2-((R)-9-(pyridin-2-yl)-6-oxaspiro[4.5]decan-9-yl)ethyl)-5,6-dihydro-4H-pyrrolo[1,2-b]pyrazol-4-amine] | 26 | 68.5 |  | 4.7
